The values below come from patent US20110091470A1, “ANTI-FLT3 ANTIBODIES” (IMCLONE LLC, priority 2008, published 2011).

In the assay the target is ITD-mutant FLT3 expressed on BaF3-ITD cells. Description: cell-based or functional assay.
ITD-mutant FLT3 expressed on BaF3-ITD cells, sequence (chain, as listed by the source mutant limits assumed, form in doubt): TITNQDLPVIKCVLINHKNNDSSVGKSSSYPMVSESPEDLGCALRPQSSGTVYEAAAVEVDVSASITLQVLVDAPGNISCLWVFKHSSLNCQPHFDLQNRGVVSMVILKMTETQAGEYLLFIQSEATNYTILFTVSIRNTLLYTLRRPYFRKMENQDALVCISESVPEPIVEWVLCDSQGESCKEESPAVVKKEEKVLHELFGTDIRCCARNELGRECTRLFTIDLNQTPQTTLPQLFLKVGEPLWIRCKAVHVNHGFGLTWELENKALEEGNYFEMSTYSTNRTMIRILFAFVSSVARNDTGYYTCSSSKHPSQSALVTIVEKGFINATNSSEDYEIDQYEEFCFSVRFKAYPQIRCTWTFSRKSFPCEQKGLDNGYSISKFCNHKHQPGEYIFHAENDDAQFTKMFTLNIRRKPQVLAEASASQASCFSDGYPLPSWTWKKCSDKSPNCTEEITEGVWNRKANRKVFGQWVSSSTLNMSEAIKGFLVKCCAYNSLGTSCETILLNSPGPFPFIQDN

B1: recombinant human monoclonal antibody EB10 (antibody, human IgG1, kappa)
heavy: EVQLVQSGAEVKKPGASVKVSCKASGYTFTSYYMHWVRQAPGQGLEWMGIINPSGGSTSYAQKFQGRVTMTRDTSTSTVYMELSSLRSEDTAVYYCARGVGAHDAFDIWGQGTTVTVSSASTKGPSVFPLAPSSKSTSGGTAALGCLVKDYFPEPVTVSWNSGALTSGVHTFPAVLQSSGLYSLSSVVTVPSSSLGTQTYICNVNHKPSNTKVDKRV[letters of human IgG1 Fc omitted]
light: DVVMTQSPLSLPVTPGEPASISCRSSQSLLHSNGNNYLDWYLQKPGQSPQLLIYLGSNRASGVPDRFSGSGSDTDFTLQISRVEAEDVGVYYCMQGTHPAISFGQGTRLEIKRTVAAPSVFIFPPSDEQLKSGTASVVCLLNNFYPREAKVQWKVDNALQSGNSQESVTEQDSKDSTYSLSSTLTLSKADYEKHKVYACEVTHQGLSSPVTKSFNRGEC
In the case of B1, the % Inhibition of FL-independent proliferation of BaF3-ITD cells at 1.5 nM was 0.5%, the % Inhibition of FL-independent proliferation of BaF3-ITD cells at 3 nM amounted to 0.5%, the % Inhibition of FL-independent proliferation of BaF3-ITD cells at 6 nM amounted to 9.6% and the % Inhibition of FL-independent proliferation of BaF3-ITD cells at 13 nM turned out to be 13%. Also, the % Inhibition of FL-independent proliferation of BaF3-ITD cells at 25 nM turned out to be 23.3%; the % Inhibition of FL-independent proliferation of BaF3-ITD cells at 50 nM amounted to 28.6%; the % Inhibition of FL-independent proliferation of BaF3-ITD cells at 100 nM was determined as 29.2%; the Inhibition of AKT Phosphorylation (IC50), BaF3-ITD cells, FL-independent was 0.1 nM. In addition, the Inhibition of FLT3 Phosphorylation (IC50), BaF3-ITD cells, FL-independent was 4 nM; the Inhibition of MAPK Phosphorylation (IC50), BaF3-ITD cells was found to be 0.1 nM; the Inhibition of Stat5 Phosphorylation (IC50), BaF3-ITD cells, FL-independent turned out to be 4 nM.
